# According to PubChem BioAssay AID602292 (National Center for Advancing Translational Sciences (NCATS), 2012):
# Screen size: about 1,300 compounds; about 380 (29%) were called active. The inconclusive results got no clear call from the source; some entries with a clear call stand among them for comparison. Calls follow the shape of the dose curve; as a rule, active = well fitted inhibition curve with a large enough effect; inconclusive = small, poorly fitted or top-dose-only effect; inactive = flat fitted curve, though single readings scatter. Potencies of inconclusive entries are left out as doubtful fits.
# Biological target: Thyrotropin receptor (Homo sapiens) (UniProt P16473)
# Assay: qHTS for antagonists of the Thyroid Stimulation Hormone Receptor: Hit Validation in Primary Screen; also: nearly all actives have a fitted effect of over 80% in size
# Conditions: TSHR-expressing cells, cAMP antagonist mode; series mostly up to 58 µM
# Outline: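 TSHR-expressing cells were pretreated with compound, then stimulated with TSH at EC80 (4nM final) for 2 hours at 37 deg C. Cellular cAMP measured by competitive HTRF (anti-cAMP cryptate, cAMP-d2) after 30 min at room temperature.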
# Potency is read from the fitted curve at half-maximal effect; tags tell the direction and shape of the fitted curve.
# Sequence of UniProt P16473 (P16473 whole entry, looked up): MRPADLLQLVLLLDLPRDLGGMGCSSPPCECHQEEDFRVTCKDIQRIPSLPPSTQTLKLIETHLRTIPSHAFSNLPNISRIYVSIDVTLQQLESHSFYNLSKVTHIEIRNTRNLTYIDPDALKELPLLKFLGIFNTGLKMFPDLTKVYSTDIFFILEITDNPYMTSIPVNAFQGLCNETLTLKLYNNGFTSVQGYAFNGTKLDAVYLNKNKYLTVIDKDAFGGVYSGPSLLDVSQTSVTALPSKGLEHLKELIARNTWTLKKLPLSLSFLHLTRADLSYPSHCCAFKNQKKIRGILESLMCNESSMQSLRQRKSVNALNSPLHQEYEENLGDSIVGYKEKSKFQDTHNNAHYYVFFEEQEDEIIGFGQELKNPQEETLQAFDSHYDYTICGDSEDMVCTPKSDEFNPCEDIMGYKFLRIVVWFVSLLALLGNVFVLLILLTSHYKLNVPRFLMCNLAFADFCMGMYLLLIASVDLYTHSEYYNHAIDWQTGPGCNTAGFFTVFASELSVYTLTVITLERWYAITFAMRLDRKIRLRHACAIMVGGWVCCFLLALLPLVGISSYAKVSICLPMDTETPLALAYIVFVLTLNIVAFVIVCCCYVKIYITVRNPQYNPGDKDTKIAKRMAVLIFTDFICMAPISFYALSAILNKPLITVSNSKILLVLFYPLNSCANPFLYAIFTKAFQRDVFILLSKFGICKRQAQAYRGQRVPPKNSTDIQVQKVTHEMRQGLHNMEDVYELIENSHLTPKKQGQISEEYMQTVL
row,SMILES,Potency
1,O=C(c1cccc(Cl)c1)N1CCN(Cc2ccc3c(c2)OCO3)CC1,inactive
2,CSCc1cc(N2CCOCC2)nc(SCc2ccc(Cl)cc2Cl)n1,inactive
3,CCCc1nnc(NC(=O)c2nc(S(=O)(=O)Cc3ccc(C)cc3)ncc2Cl)s1,"inconclusive [inhibitor, partial curve]"
4,Cc1ccc(Oc2cc(NC(=O)CCCn3nc([N+](=O)[O-])cc3C)cc([N+](=O)[O-])c2)cc1,"inconclusive [inhibitor, partial curve]"
5,COc1ccc(NS(=O)(=O)c2ccc(N/N=C(\C)c3ccncc3)c([N+](=O)[O-])c2)cc1,"inconclusive [inhibitor, partial curve]"
6,CS(=O)(=O)c1ccc(C(=O)OCC(=O)NC(=O)C2CCCCC2)cc1[N+](=O)[O-],"inconclusive [inhibitor, partial curve]"
7,O=C(COc1ccccc1/C=C1\SC(=S)NC1=O)Nc1ccc(F)cc1,"inconclusive [inhibitor, partial curve, poor fit]"
8,CCOc1ccnc2c1c(=O)n(Cc1cc(OC)cc(OC)c1)c(=O)n2C,inactive
9,O=C(COCc1cc(-c2cccs2)on1)NC1CCCCC1,inactive
10,O=S(=O)(Nc1cccc(-c2ccc(N3CCCCCC3)nn2)c1)c1ccc(F)cc1,inactive
11,CCc1ccc(NC(=O)c2nc(S(=O)(=O)Cc3ccccc3)ncc2Cl)cc1,"inconclusive [inhibitor, partial curve]"
12,Cc1ccc(-n2nc3c(=O)n(C(C)C(=O)NC4CC4)nc(C)c3c2C)cc1 (stereo not drawn),inactive
13,Cc1c(C(=O)NCc2ccc3c(c2)OCO3)sc2nc(-c3ccccc3)cn12,"inconclusive [inhibitor, partial curve, poor fit]"
14,CCOc1ccccc1N1CCN(C(=O)CCCN2C(=O)c3cccc4cccc(c34)C2=O)CC1,active: 30.1 µM
15,COc1ccc(NC(=S)N(CCCN2CCOCC2)C(C)c2cc3cccc(OC)c3o2)cc1 (stereo not drawn),inactive
16,Cc1ccc2c(CN3CCN(S(=O)(=O)c4ccc(Cl)cc4)CC3)cc(=O)oc2c1C,"inconclusive [inhibitor, partial curve, poor fit]"
17,CCS(=O)(=O)c1ncc(Cl)c(C(=O)Nc2ccc(S(=O)(=O)N(C)c3ccccc3)cc2)n1,active: 19 µM
18,O=C(O)/C=C/c1ccc(S(=O)(=O)Nc2ccccc2C(=O)Nc2ccc(F)cc2)cc1,"inconclusive [inhibitor, partial curve, poor fit]"
19,COc1cccc(NC(=S)N2CCCN(Cc3ccc(F)cc3)C2)c1,inactive
20,CC(=O)N/C(=C\c1ccc(Cl)cc1)C(=O)O,inactive
21,Cc1nnc(SCC(=O)Nc2nonc2C)s1,inactive
22,O=C1NC(=S)S/C1=C\c1ccc2ccccc2c1,"inconclusive [inhibitor, partial curve]"
23,O=C1C=C(c2ccc3[nH]ccc3c2)C[C@@H](c2ccc(Cl)cc2)C1,inactive
24,Cn1c2c(c(=O)n(C)c1=O)C(C(F)(F)F)(C(F)(F)F)N=C(c1ccc(Cl)cc1)N2,active: 19 µM
25,CC(C)Cc1csc(NC(=O)c2ccc(Br)cc2)c1C(=O)O,"inconclusive [inhibitor, partial curve]"

row,SMILES,Potency
1,N#Cc1nc(-c2ccccc2)oc1N1CCN(C(=O)c2ccco2)CC1,inactive
2,Cc1nc(NCCc2ccccc2)c(C#N)c(C)c1[N+](=O)[O-],"inconclusive [inhibitor, partial curve, poor fit]"
3,COc1ccc2ccccc2c1/C=N/NC(=O)c1nnn(-c2nonc2N)c1C(C)C,"inconclusive [inhibitor, partial curve, poor fit]"
4,COC(=O)C1C(=O)NC(SC)=C(C#N)C1c1ccccc1 (stereo not drawn),inactive
5,CCOc1cc(N2CCOCC2)c(OCC)cc1NC(=O)c1cc(S(=O)(=O)N2CCOCC2)ccc1C,"inconclusive [inhibitor, partial curve]"
6,O=C(Nc1nccs1)c1ccc(COc2c(F)c(F)cc(F)c2F)o1,"inconclusive [inhibitor, partial curve, poor fit]"
7,COc1cccc(CN(C)C(=O)c2ccc(Oc3ccccc3)cc2)c1OC,active: 37.9 µM
8,Cc1cccc(C)c1OCCCn1ccnc1,inactive
9,Cc1ccc(C)c(S(=O)(=O)N2CCN(C(=O)C3CCN(c4ncnc5sc(C)c(C)c45)CC3)CC2)c1,"inconclusive [inhibitor, partial curve, poor fit]"
10,Cc1ccc(S(=O)(=O)N(CC(=O)NCc2ccccn2)c2ccc(Cl)cc2)cc1,inactive
11,NS(=O)(=O)c1ccc(NCc2ccccc2OCc2ccccc2F)cc1,"inconclusive [inhibitor, partial curve]"
12,O=C(NN=C1CCCC1)c1cc(Cl)cc(Cl)c1O,inactive
13,CCc1noc(C)c1C(=O)Oc1ccc(N(C)S(=O)(=O)c2ccc(C)cc2)cc1,"inconclusive [inhibitor, partial curve]"
14,c1ccc2c(COn3nnc4ccccc43)cccc2c1,"inconclusive [inhibitor, partial curve]"
15,COCC1CCCCN1C(=O)C1CCN(c2nc(-c3ccccc3)nc3c2CCC3)CC1 (stereo not drawn),"inconclusive [inhibitor, partial curve, poor fit]"
16,CCCC(=O)N(C1CC(C)C(C#N)(C#N)C1(C#N)C#N)N(C)C (stereo not drawn),"inconclusive [inhibitor, partial curve]"
17,CC(C)C1Nc2c(O)cc(Cl)c([N+](=O)[O-])c2C2C=CCC21 (stereo not drawn),active: 8.49 µM
18,Cc1cccc(CC(=O)NCC(=O)NCc2cc(=O)n(C)c(=O)n2C)c1,inactive
19,Cc1cccc(N(C(=O)c2nsc(Cl)c2Cl)C(C(=O)NC2CCCC2)c2ccc(O)cc2)c1C (stereo not drawn),"inconclusive [inhibitor, partial curve]"
20,Cc1c(C(=O)Nc2ccc3c(c2)OCCO3)sc2nc(-c3ccccc3)cn12,active: 30.1 µM
21,O=C(Nc1nc2c(s1)CCCC2)c1ccc2ncsc2c1,"inconclusive [inhibitor, partial curve, poor fit]"
22,c1ccc(C(c2nnnn2Cc2ccco2)N2CCN(c3nc4ccccc4s3)CC2)cc1 (stereo not drawn),inactive
23,O=C(Nc1ccncc1)c1ccc(Cl)c(S(=O)(=O)N2CCc3ccccc32)c1,"inconclusive [inhibitor, partial curve]"
24,O=[N+]([O-])c1ccc(COc2cccc(CNc3ccc(F)cc3)c2)cc1,"inconclusive [inhibitor, partial curve, poor fit]"
25,COc1ccc(C2c3ccc(O)cc3Oc3ncn(Cc4ccco4)c(=N)c32)cc1 (stereo not drawn),inactive

row,SMILES,Potency
1,Cc1cccc(NC(=S)NCC(C)CSc2ccc(Cl)cc2)c1 (stereo not drawn),active: 30.1 µM
2,O=C(Nc1cccc(S(=O)(=O)N2CCCCC2)c1)c1ccc2c(=O)n3c(nc2c1)CCCCC3,"inconclusive [inhibitor, partial curve]"
3,COc1ccc(S(=O)(=O)N2CCN(c3cccc(C)c3C)CC2)cc1,"inconclusive [inhibitor, partial curve]"
4,O=C(NCC1CCCO1)c1cccc2c1C(=O)c1ccc(N3CCC(Cc4ccccc4)CC3)cc1S2(=O)=O (stereo not drawn),"inconclusive [inhibitor, partial curve]"
5,Cc1ccccc1Oc1cc(-n2ncc(Cl)c(Cl)c2=O)ncn1,active: 12 µM
6,CC1CCC(C(C)C)C(OC(=O)Cn2c(-c3ccccc3)[n+](C)c3ccccc32)C1 (stereo not drawn),active: 30.1 µM
7,CCn1nc(C)c(CN2CCCC(CNS(=O)(=O)c3ccc(OC)cc3)C2)c1C (stereo not drawn),inactive
8,O=C(COC(=O)c1ccccc1SCC(=O)N1CCCC1)Nc1ccccc1,"inconclusive [inhibitor, partial curve, poor fit]"
9,O=[N+]([O-])c1ccc(Sc2cccc[n+]2[O-])c2nonc12,active: 8.49 µM
10,CNc1c(NC(=O)c2ccc3c(c2)OCO3)c(=O)oc2ccccc12,inactive
11,Cc1ccc(N2C(=O)C3C4C=CC(CC4)C3C2=O)cc1Cl (stereo not drawn),inactive
12,COC(=O)c1nc2n(n1)C(c1cccc(Cl)c1)C1=C(CCCC1=O)N2 (stereo not drawn),inactive
13,CCN(c1ccccc1)S(=O)(=O)c1ccc(NCC2COc3ccccc3O2)nc1 (stereo not drawn),inactive
14,CC1CCCC(N2CCN(S(=O)(=O)c3ccccc3)CC2)C1 (stereo not drawn),inactive
15,O=c1[nH]c(=S)[nH]c2c1CN(Cc1ccc(F)cc1)CC2,inactive
16,COc1ccc(C(=O)/C=C/Nc2ccc(S(=O)(=O)Nc3cccc(C(C)=O)c3)cc2)cc1,"inconclusive [inhibitor, partial curve]"
17,Cc1ccc(C(=O)COC(=O)CCN2C(=O)C3C4CCC(C4)C3C2=O)cc1[N+](=O)[O-] (stereo not drawn),"inconclusive [inhibitor, partial curve, poor fit]"
18,COc1ccc(-c2nnc(NC(=O)c3ccc4c(c3)OCCO4)o2)cc1,inactive
19,CC(C)c1ccc(/C=C/C(=O)NCCC2=CCCCC2)cc1,"inconclusive [inhibitor, partial curve]"
20,COc1cccc(-c2nc(CS(=O)(=O)CC(=O)N3CCCCC3)c(C)o2)c1,"inconclusive [inhibitor, partial curve, poor fit]"
21,CC1(C)CC(=O)c2c(nc3ccccc3c2N)C1,inactive
22,O=S(=O)(Nc1ccc2cn[nH]c2c1)c1cc(Br)ccc1Br,active: 21.3 µM
23,CC(C)(C)NC(=O)C(c1ccc(O)cc1)N(Cc1ccccc1)C(=O)CCC(=O)Nc1nccs1 (stereo not drawn),inactive
